# According to the supplement of paper PMC4166925:
# ± gives the standard deviation of the averaged measurements. The full ranking holds about 33,000 sequences; the median of “E-score (dimensionless, -0.5 to 0.5)” is about -0.046, and the highest 2% start at about 0.36. The list shows a part of the results.
# System: T1, SpTbr T-box DNA-binding domain (GST fusion)
# T1 sequence: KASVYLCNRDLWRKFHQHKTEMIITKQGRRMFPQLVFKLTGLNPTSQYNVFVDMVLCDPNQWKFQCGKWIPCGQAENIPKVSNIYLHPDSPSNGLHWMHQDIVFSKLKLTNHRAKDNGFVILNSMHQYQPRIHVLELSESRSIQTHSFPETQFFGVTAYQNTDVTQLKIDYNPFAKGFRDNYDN
# Experiment: PBM E-score of 8-mer (E-score (dimensionless, -0.5 to 0.5)); Tbr is Tbrain of the sea star Patiria miniata (Pm) or the sea urchin Strongylocentrotus purpuratus (Sp); higher = stronger binding preference; most listed sequences are background and not binding sites
# Conditions: the construct has about 5 more residues each side
# Method: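 Universal protein-binding microarray (Agilent AMADID 016060, 60-bp probes with a 35-bp variable region) incubated with 200 nM GST-fused Strongylocentrotus purpuratus Tbr T-box DNA-binding domain (residues 362-554) in PBS pH 7.5. Scored for every ungapped 8-mer (given with its reverse complement) as E-score (range -0.5 to 0.5; >0.45 counts as bound) and Z-score of median probe intensity. Two replicate arrays (datasets 1 and 2).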
# 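Also: protein at 200 nM in PBS on universal double-stranded arrays.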
row,Sequence,PBM E-score of 8-mer
1,ACACGGTG,0.144 ± 0.044
2,CGGATCGA,-0.191 ± 0.056
3,GTGCATCA,-0.0126 ± 0.024
4,AGAGCGTC,0.0292 ± 0.0018
5,GGCAGCTA,-0.0501 ± 0.058
6,AGGTCAAT,-0.202 ± 0.093
7,CAGCCAAC,0.106 ± 0.037
8,CTATATAA,-0.187 ± 0.0075
9,CAGAACTG,-0.252 ± 0.056
10,AATATTCT,-0.0507 ± 0.086
11,AGCGGTAT,-0.0754 ± 0.086
12,CGGACCCA,-0.0768 ± 0.03
13,AAGGCAGG,-0.15 ± 0.031
14,AACGTGAG,0.188 ± 0.02
15,ACTGTACA,-0.025 ± 0.024
16,TAAAAAAA,0.036 ± 0.058
17,GGTTGAGA,0.0661 ± 0.061
18,TATCTGGA,-0.031 ± 0.0025
19,ACTTCTAC,0.037 ± 0.013
20,CGCCGACA,0.291 ± 0.015
21,CACGCCGC,0.169 ± 0.023
22,AGCGTGTC,0.152 ± 0.072

row,Sequence,PBM E-score of 8-mer
1,ATTCCTAG,-0.236 ± 0.011
2,ACGGCTTG,0.0249 ± 0.033
3,CGGTGTGC,0.0403 ± 0.015
4,CACCGGCG,0.0512 ± 0.077
5,AATACTGT,-0.0131 ± 0.1
6,AACCTGAT,-0.122 ± 0.016
7,CCAGCTTA,-0.133 ± 0.035
8,AATATAAG,-0.368 ± 0.093
9,GGCAGAGA,-0.193 ± 0.042
10,TGACGCAA,0.101 ± 0.067
11,AACTGCAT,-0.119 ± 0.03
12,ACGAATCA,-0.0264 ± 0.11
13,CGGCCATC,-0.125 ± 0.027
14,AATATGCT,0.0234 ± 0.019
15,CAATCCTC,0.0167 ± 0.016
16,AGTGGGGG,-0.0909 ± 0.05
17,AGAAGTTG,0.0931 ± 0.029
18,TAATGTGA,0.218 ± 0.024
19,ATGGAGCC,-0.297 ± 0.012
20,CAAGGCAC,-0.06725 ± 1.4e-05
21,GTAGTTCA,-0.1219 ± 0.00013
22,CCCCGGGC,-0.192 ± 0.11

row,Sequence,PBM E-score of 8-mer
1,CTGTGGAC,0.00823 ± 0.017
2,TATAAGCA,-0.138 ± 0.013
3,GTACCTGA,-0.2372 ± 0.0014
4,AAGCACTG,-0.0411 ± 0.081
5,AACTCCTA,0.01 ± 0.014
6,AGATATTG,-0.117 ± 0.048
7,GAGGACTC,-0.224 ± 0.053
8,CCGTTTGC,0.0538 ± 0.01
9,ACTCAACA,0.195 ± 0.01
10,GGACCGCA,-0.132 ± 0.051
11,CGTGAGGA,0.178 ± 0.011
12,AGACGCAG,-0.0766 ± 0.028
13,CTTACCGC,0.046 ± 0.0053
14,CTACCAAC,-0.0445 ± 0.065
15,AGTTACCC,-0.125 ± 0.045
16,GCCAATGA,0.104 ± 0.082
17,GACGCTGC,-0.0944 ± 0.087
18,ACTAAAGA,-0.174 ± 0.049
19,CAGTTTTA,-0.0509 ± 0.036
20,ACCCTAGA,-0.114 ± 0.0022
21,CAGTCCAC,0.192 ± 0.026
22,CCAGGTAG,-0.0519 ± 0.069

row,Sequence,PBM E-score of 8-mer
1,ATCAGGAT,-0.119 ± 0.0046
2,CTTCAAAG,-0.138 ± 0.029
3,ATGTACAG,-0.039 ± 0.071
4,CAATTCGA,-0.115 ± 0.034
5,GCTTATCC,0.125 ± 0.027
6,CGACGTAG,-0.137 ± 0.045
7,ATGTCCAG,-0.221 ± 0.041
8,AGAGATGC,-0.0945 ± 0.03
9,ATCCGGAT,-0.134 ± 0.029
10,ATCCGGTA,-0.0877 ± 0.073
11,AGAATTTC,-0.0384 ± 0.14
12,ACCGTACG,0.0643 ± 0.0085
13,GGATCGAC,-0.0556 ± 0.0057
14,ACAACCCT,0.0805 ± 0.0049
15,ATTTGAAA,-0.227 ± 0.071
16,ACATCAAA,0.0819 ± 0.034
17,CCAAAGGA,-0.262 ± 0.032
18,AGAAGTCA,-0.00144 ± 0.039
19,ATACTGTC,0.0797 ± 0.033
20,AGGCGCGC,0.185 ± 0.039
21,CTCCTGCA,-0.0864 ± 0.04
22,AGAGAACG,0.14 ± 0.025

row,Sequence,PBM E-score of 8-mer
1,ATGTTTAA,-0.0732 ± 0.0089
2,CGACAGAA,0.0111 ± 0.034
3,ACAAAGGG,-0.137 ± 0.048
4,CGGCTACG,-0.0244 ± 0.031
5,GAGTCTAA,-0.0932 ± 0.04
6,CATCCGAG,-0.13 ± 0.052
7,CGTGTTAA,0.409 ± 0.0099
8,GGCACACA,0.224 ± 0.0077
9,GCTTTCAA,-0.139 ± 0.024
10,CGTGCCAC,0.254 ± 0.041
11,ATTGCTAG,0.0788 ± 0.013
12,ACAGGCTC,-0.016 ± 0.026
13,GGAGCTCA,-0.0825 ± 0.04
14,CGGTTCAA,-0.32702 ± 3.5e-05
15,GGGGTAAC,-0.0298 ± 0.022
16,AGCGTGGA,0.102 ± 0.045
17,GCCAGGGA,-0.192 ± 0.057
18,ATCACAAA,0.106 ± 0.014
19,CACAGCCG,0.0316 ± 0.067
20,AGTCCTTA,-0.0939 ± 0.02
21,CCGTTAAA,0.176 ± 0.08
22,CTCAGAAC,0.02 ± 0.019
